# Measured values from the supplement of paper PMC12217912.
# The other results are listed elsewhere or left out. The full chains were built here from the parent and the listed change. Values near 0.05 are background.
# B1: TEV protease; numbered along this chain (parent)
# chain: MGESLFKGPRDYNPISSSICHLTNESDGHTTSLYGIGFGPFIITNKHLFRRNNGTLVVQSLHGVFKVKDTTTLQQHLVDGRDMIIIRMPKDFPPFPQKLKFREPQREERICLVTTNFQTKSMSSMVSDTSCTFPSGDGIFWKHWIQTKDGQCGSPLVSTRDGFIVGIHSASNFTNTNNYFTSVPKNFMELLTNQEAQQWVSGWRLNADSVLWGGHKVFMVKPEEPFQPVKEATQL
# Variants of: B1
# Experiment: raw area under fraction-flipped curve 0-4 h after induction (AUC4h, not background-subtracted), DNA-recorder readout of cleavage of the substrate (dimensionless); higher = more cleavage of the substrate by the protease variant
# Conditions: temperature: 34 °C; time window: 0-4 h after rhamnose induction
# Description: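 In vivo DNA recorder in E. coli TOP10(DE3) ΔrhaA at 34 °C. Each TEVp single-site mutant (parent TEVp 0) is paired with a single-site variant of the 7-mer TEVs (canonical ENLYFQ|S). The substrate sits between flexible linkers in a Bxb1-sfGFP-TEVs-SsrA fusion, so cleavage stabilises Bxb1 and speeds flipping of a recombination array, read by NGS. The value is the raw area under the fraction-flipped curve over 0-4 h after rhamnose induction (AUC4h), with ≥20 reads per time point. It is not background-subtracted; inactive controls average about 0.047.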
# 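Further: Bxb1 expression induced with 0.2% (w/v) L-rhamnose at OD600 near 0.5, cultures sampled hourly, flipped fraction per protease–substrate barcode pair counted by paired-end Illumina sequencing.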
Variant,area with substrate ENLYFCS,area with substrate ENLYFES,area with substrate ENLYFFS,area with substrate ENLYFGS,area with substrate ENLYFIS,area with substrate ENLYFKS,area with substrate ENLYFLS,area with substrate ENLYFMS,area with substrate ENLYFNS,area with substrate ENLYFPS,area with substrate ENLYFRS,area with substrate ENLYFSS,area with substrate ENLYFTS,area with substrate ENLYFWS,area with substrate ENLYFYS,area with substrate ENLYFHS,area with substrate ENLYFVS,area with substrate ENLYFDS,area with substrate ENLYFAS
H76S,0.055,0.0625,0.042,0.0613,0.0615,0.0838,0.0563,0.0589,0.0534,0.06,0.0493,0.0532,0.0609,0.0523,0.0451,,,,
S18L,0.0584,0.0653,0.0641,0.0658,0.0815,0.0557,,0.0652,0.0644,0.0527,,0.0572,0.0493,0.0597,0.0568,0.0551,0.0471,,
K68E,0.0676,,0.0895,0.0537,0.0538,0.0642,0.0722,0.0681,0.0527,0.0596,0.0622,0.05,0.0685,0.0606,0.0357,,0.0699,0.0708,
F173I,0.0694,0.0648,0.0519,,0.0557,0.0634,0.0725,0.0622,0.0752,0.0564,0.06,,0.0587,0.0465,,0.0559,0.0634,,
K120Q,0.0615,0.05,0.0778,,0.0484,0.0698,,0.0734,0.0546,0.0651,0.05,0.0509,,0.0473,,0.0702,,0.0581,
R106H,0.0587,0.0604,0.075,,0.056,0.0677,,0.0901,0.0641,0.0651,0.0555,0.073,0.0706,0.0502,0.053,0.0636,0.0565,0.052,
K142M,0.0602,0.0782,0.0691,,0.0568,0.0642,0.0627,0.064,,0.0583,0.0634,,0.0541,,,0.062,,,
F117K,0.0599,,0.0686,,0.0534,,0.0593,0.0762,0.0645,0.0541,0.0633,0.0637,0.0597,0.0611,0.0613,0.0671,0.0608,0.0557,
S17R,0.0688,0.0576,0.0692,,0.0546,0.032,0.0766,0.0938,0.046,0.0622,0.052,0.063,0.0538,0.0713,0.0599,0.0599,0.0687,,
M88I,0.0579,0.0652,0.0563,0.0523,,0.0563,0.0764,0.0699,0.0328,0.068,,,0.0638,,0.0711,0.0571,,,
P14S,0.055,0.0584,0.0666,0.0685,0.0639,0.0601,0.0594,0.0683,0.0594,0.0537,0.0483,0.0521,0.0563,0.0442,0.0635,0.0595,0.0672,0.0557,
N175P,0.0664,0.0524,0.0727,,0.049,0.151,,,0.0649,0.0588,0.0599,0.0696,,0.0656,0.0751,,0.053,,
N175M,0.0604,0.0659,,0.0831,0.0577,0.0609,,0.0755,,0.0568,0.087,,0.0626,0.0468,0.0574,0.0758,,0.0568,
N175Y,0.0571,,0.067,,0.0763,0.0762,,0.0849,0.0641,,,0.0599,0.0601,0.0549,0.0461,0.0581,0.0663,,
F92A,0.0592,0.0675,0.0622,0.0468,0.0664,,,0.0695,,0.0494,0.0612,0.0561,0.0627,,0.0339,,,,
I164Y,0.0491,0.0606,0.0695,0.056,0.0572,0.0461,,0.0509,0.0472,0.0545,0.0559,,0.0495,,0.0491,,0.0571,0.0424,
P9G,0.0666,0.0654,0.075,0.06,0.0599,,,0.0651,,0.0568,,,0.0594,,,0.0651,0.0625,0.0553,
P9V,0.0424,0.0529,,,0.0546,0.0635,,,0.0636,,0.0519,,0.0647,0.0631,,0.0714,0.057,,
R109H,0.061,0.0673,0.058,,0.0606,,,0.073,0.0695,0.0561,0.0592,0.0784,0.0831,,0.0594,0.0213,,,
K230W,0.0578,0.0638,0.0723,0.0494,0.0549,0.0604,,0.073,0.0626,0.0614,0.0567,0.0413,0.0348,0.0604,,,0.0502,,0.0618
F163L,0.0714,,0.0707,0.0625,0.053,0.068,0.0662,,0.0732,,0.0495,,0.0556,0.0745,0.0434,,0.062,,
K46Q,0.0502,0.0616,0.0672,,0.0526,0.0485,0.0486,0.0587,0.0632,0.0497,,0.0767,,,0.039,,0.0641,,
M125K,0.0592,0.0649,0.0836,0.0811,0.0623,0.0661,0.0671,0.0619,0.0665,,0.0481,0.0625,,,0.0588,,,,
L22R,0.0562,0.0378,0.048,0.059,0.0496,0.0307,0.0453,0.0461,,0.0434,0.0424,0.0474,,0.0379,0.0543,0.0182,,,
T30G,0.0617,0.0621,,,0.0431,0.0451,,0.0624,0.0603,0.0558,0.0386,0.0595,0.0994,,0.0521,,,0.0594,
H47S,0.0518,0.0523,,,0.0586,0.0695,0.0623,0.0707,0.0651,0.0588,0.0631,,0.0635,0.0595,0.0607,0.062,0.0531,0.0657,
